According to PubChem BioAssay AID588579 (National Center for Advancing Translational Sciences (NCATS), 2011):
Where “and” joins values, the source holds several entries; their conditions need not be identical. Identical values can stand only once. Screen size: about 400,000 compounds; about 2,200 (0.55%) were called active. Another 1% or so got no clear call; they are omitted. Calls follow the shape of the dose curve; as a rule, active = well fitted inhibition curve with a large enough effect; inconclusive = small, poorly fitted or top-dose-only effect, or another doubt; inactive = no such curve, though single readings can be large or run the other way. The entries are a selection whose mix differs from that of the whole data set. More than one record can exist for a structure, and the calls need not agree.

Target: DNA polymerase kappa (Homo sapiens) (UniProt Q9UBT6)
Test: qHTS for Inhibitors of Polymerase Kappa
Conditions: purified Pol kappa, fluorescent DNA synthesis assay, 10 min; series mostly up to 107 µM; activity, negative = inhibition: at the top concentration
Method in brief: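 Readout: fluorescence, taken kinetically at 0 and 10 min. Conditions: 10 nM Pol kappa, 15 min RT compound preincubation, 50 nM substrate final. Controls: enzyme-free buffer wells.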
% is scaled to controls: 0 for no effect and ±100 for the full control effect; potency is read from the fitted curve at half-maximal effect.

UniProt Q9UBT6, sequence (Q9UBT6 whole entry, looked up): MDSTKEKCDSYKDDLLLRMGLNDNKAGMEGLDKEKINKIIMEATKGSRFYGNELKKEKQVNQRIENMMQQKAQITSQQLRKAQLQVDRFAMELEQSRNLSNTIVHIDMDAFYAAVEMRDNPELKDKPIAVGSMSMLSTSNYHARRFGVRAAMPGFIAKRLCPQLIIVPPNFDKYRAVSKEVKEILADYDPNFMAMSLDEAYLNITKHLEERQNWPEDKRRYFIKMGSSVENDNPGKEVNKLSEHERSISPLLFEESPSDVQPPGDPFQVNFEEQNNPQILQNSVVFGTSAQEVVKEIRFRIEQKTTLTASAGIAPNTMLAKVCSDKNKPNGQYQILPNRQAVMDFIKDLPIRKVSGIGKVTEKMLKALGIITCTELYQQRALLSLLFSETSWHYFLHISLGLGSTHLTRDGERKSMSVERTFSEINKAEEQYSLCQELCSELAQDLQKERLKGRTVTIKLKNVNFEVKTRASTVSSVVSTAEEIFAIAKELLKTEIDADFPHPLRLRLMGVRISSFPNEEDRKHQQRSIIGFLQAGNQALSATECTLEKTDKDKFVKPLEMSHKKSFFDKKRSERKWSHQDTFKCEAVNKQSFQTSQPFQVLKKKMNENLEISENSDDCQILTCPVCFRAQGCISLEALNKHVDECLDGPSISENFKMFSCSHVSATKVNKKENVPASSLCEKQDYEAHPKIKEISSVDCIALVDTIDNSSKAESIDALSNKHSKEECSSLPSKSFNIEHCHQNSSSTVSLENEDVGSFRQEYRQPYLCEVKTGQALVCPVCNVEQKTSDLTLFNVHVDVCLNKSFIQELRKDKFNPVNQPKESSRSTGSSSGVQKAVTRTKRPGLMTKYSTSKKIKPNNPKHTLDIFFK

Potency, active:
Cc1ccc(C)n1-c1nc(=S)[nH][nH]1 28.2 µM
CC(=O)c1ccc(S(=O)(=O)N2Cc3ccccc3CC2C(=O)O)cc1 (stereo unspecified) 50.1 µM
CCN(CC)c1ccc(/C=C(\C#N)C(=O)c2ccc(Br)cc2)cc1 22.4 µM
COc1ccc(S(=O)(=O)N2CCN(CC(=O)c3ccc(O)c(O)c3)CC2)cc1 31.6 µM
COc1ccc(C2=Nn3c(nnc3-c3ccccc3Cl)SC2)cc1OCC1CC1 39.8 µM
Cc1ccc(C)c(S(=O)(=O)N2CCN(C(=O)/C=C/c3ccco3)CC2)c1 50.1 µM
O=C1c2ccccc2-c2onc3ccc(NCCCn4ccnc4)c1c23 20 µM
N#Cc1c(NC(=O)COC(=O)c2ccc(O)cc2O)sc2c1CCC2 79.4 µM
CN(C)CCCNc1c2ccccc2nc2ccccc12 25.1 µM
COc1ccc(-c2coc3cc(O)ccc3c2=O)c(O)c1O 1.78 µM
O=C(O)CCNc1cc(N2CCN(C(=O)c3ccco3)CC2)c2noc3c2c1C(=O)c1ccccc1-3 12.6 µM
O=C(O)c1cc2cccc([N+](=O)[O-])c2[nH]1 44.7 µM
CC1(C)CCCN(C(=O)c2coc(=O)c(Br)c2)C1 14.1 µM
O=C(O)c1cc(N=Nc2ccc(-c3ccc(N=Nc4ccc(O)c(C(=O)O)c4)cc3)cc2)ccc1O 5.97 µM

Potency, inactive:
O=C(O)CCCC[C@@H]1CCSS1
O=c1[nH]c2cc(Cl)c(Cl)cc2[nH]c1=O
CCC(C)[C@@H](N)C(=O)O (stereo partly specified)
C[C@H](O)C(N)C(=O)O (stereo partly specified)
O=c1[nH]c2cc(Cl)ccc2c(O)c1-c1cccc(Oc2ccccc2)c1
C=CCN1CCc2c(cc(O)c(O)c2Cl)C(c2ccccc2)C1 (stereo unspecified)
COC(=O)[C@@H](N)Cc1ccc(O)c(O)c1
NCCC(O)(P(=O)(O)O)P(=O)(O)O
COc1ccc2c(c1)c(CC(=O)O)c(C)n2C(=O)c1ccc(Cl)cc1
O=C(CCc1ccc(O)cc1)c1c(O)cc(O)cc1O

activity, negative = inhibition, inactive:
CCOC(=O)C1=C(c2ccccc2)c2ccc(OC)cc2N(S(=O)(=O)C(F)(F)F)C1C(=O)OCC (stereo unspecified) -8.32%
CC(C)CCCC(C)C1CCC2C3CC=C4CC(O)CCC4(C)C3CCC12C (stereo unspecified) -10.5% [at 19.4 µM]
NC(=O)[C@@H]1CCCN1C(=O)C(Cc1cnc[nH]1)NC(=O)C1CCC(=O)N1 (stereo partly specified) 15.5% [at 60.1 µM]
CC(C)Cc1ccc([C@@H](C)C(=O)NS(C)(=O)=O)cc1 8.88% [at 60.1 µM]
CCCCNC(=O)c1ccccc1NC(=O)CN(c1ccccc1)S(=O)(=O)N(C)C -3.59%
O=C1Nc2ccc(I)cc2/C1=C/c1cc(Br)c(O)c(Br)c1 -11.3% [at 19.4 µM] and 1.7% [at 19.4 µM]
NC(=O)N1c2ccccc2CC(=O)c2ccccc21 -11.3%
OC[C@@H]1OC(O)[C@@H](O)[C@H](O)[C@@H]1O (stereo partly specified) 5.33% [at 60.1 µM]
COc1cc2c(c(OC)c1OC)C(c1ccc(C)cc1)CC(=O)O2 (stereo unspecified) 11.4%
C=C1CCN([C@H](C(=O)O)C(C)C)S(=O)(=O)c2ccccc21 -10.1%
C[C@]12CC[C@H]3c4ccc(O)cc4CC[C@@H]3[C@H]1CC[C@@H]2OC(=O)CCC1CCCC1 -12.9% [at 60.1 µM]
N=C(CC(O)COc1ccccc1-c1ccccc1)N1CCCCC1 (stereo unspecified) 1.96% [at 19.4 µM]
CC1=C(C(=O)O)N2C(=O)[C@@H](NC(=O)C(N)C3=CCC=CC3)[C@H]2SC1 (stereo partly specified) -3.64% [at 60.1 µM]
H-IKVAV-OH 15.7% [at 60.1 µM]
CN(C[C@H](Cc1ccccc1)N(C[C@@H](CC1CCCCC1)N(CCc1ccccc1)N=O)N=O)N=O -9.07%
O=C(O)CCN1C(=O)/C(=C\c2ccc(-c3nc4ccccc4s3)o2)SC1=S -23.9%
COc1ccc(C(CC(=O)N2CCOCC2)c2c(OC)cc(OC)c3ccc(=O)oc23)cc1 (stereo unspecified) -23.2%
CSCC[C@H](NC(=O)CNC(=O)CNC(=O)[C@H](CO)NC(=O)[C@H](CCCNC(=N)N)NC(=O)[C@H](CO)NC(=O)[C@H](CC(C)C)NC(=O)[C@H](CC(C)C)NC(=O)CNC(=O)[C@H](C)NC(=O)[C@H](CC(C)C)NC(=O)[C@H](CCCNC(=N)N)NC(=O)[C@H](Cc1cnc[nH]1)NC(=O)[C@@H](NC(=O)[C@@H](N)C(C)C)[C@@H](C)O)C(=O)N[C@H](C(=O)N[C@@H](CCCCN)C(=O)N[C@@H](CO)C(=O)N[C@@H](CC(N)=O)C(=O)N[C@@H](Cc1ccccc1)C(=O)N[C@H](C(=O)N1CCC[C@H]1C(=O)N[C@H](C(=O)N[C@@H](CC(N)=O)C(=O)N[C@H](C(=O)NCC(=O)N[C@@H](CO)C(=O)N[C@@H](CCCCN)C(=O)N[C@@H](C)C(=O)N[C@@H](Cc1ccccc1)C(N)=O)C(C)C)[C@@H](C)O)C(C)C)C(C)C 14.8% [at 60.1 µM]
Cc1ccc(NC(=O)N2CCN(c3nnc(C)c4c(C)n(-c5ccccc5)nc34)CC2)c(Cl)c1 24.5%
COc1ccc([C@@H]2CC(=O)c3c(O)cc(O[C@H]4O[C@@H](CO[C@H]5O[C@@H](C)[C@@H](O)[C@@H](O)[C@@H]5O)[C@@H](O)[C@@H](O)[C@@H]4O)cc3O2)cc1O -1.59% [at 19.4 µM]
COc1cc(/C=C2\C=Cc3ccccc32)ccc1N(C)C 1.16%
CCC1CCCCC1 14.5% [at 60.1 µM]
Cc1ccc(CNC(=O)CCc2c(C)nn(-c3ccc(N4CCCCC4)nn3)c2C)cc1 29.6%
O=C1OCCN1C(=O)[C@H]1[C@H](c2ccc(F)cc2)C(c2ccc(F)cc2)=NN1c1ccccc1 -9.86%
CC(=O)C[C@@H](O)CC(=O)[C@@H]1OC(=O)CCCCCc2ccccc21 -1.83%
Cc1cccc(C2=NN(c3ccccc3)[C@H](CO)[C@H]2c2ccc(Cl)cc2)c1 -0.759%
CSCC[C@H](NC(=O)[C@H](CC(C)C)NC(=O)CNC(=O)[C@H](Cc1ccc(O)cc1)NC(=O)[C@H](Cc1ccccc1)NC(=O)[C@H](CCC(N)=O)NC(=O)[C@H](CCC(N)=O)NC(=O)[C@@H]1CCCN1C(=O)[C@H](CCCCN)NC(=O)[C@@H]1CCCN1C(=O)[C@@H](N)CCCN=C(N)N)C(N)=O 12.7% [at 60.1 µM]
